Experimental findings from the supplement of paper PMC8728848 are described below.

Assay in all cases: glycan array binding signal (z-score within array); higher = stronger binding
Conditions in all cases: glycan notation: IUPAC condensed, linker removed

The target of assay [1] is GlcNAc(a1-6)Gal(b1-4)GlcNAc. The method, boiled down:
(§1)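 From the Consortium for Functional Glycomics database, 3228 arrays were curated, keeping only those whose protein sequence was available. Binding is given as a within-array Z-score averaged across arrays sharing a protein sequence and across linkers. Negative Z-scores can be read as non-binding.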

Assay [2] deals with GlcNAc(b1-2)Gal(b1-3)GalNAc. The method, boiled down: as §1
For assay [3], the target named is GlcNAc(b1-2)Man(a1-3)[GlcNAc(b1-2)Man(a1-6)]Man(b1-4)GlcNAc(b1-4)GlcNAc. The method, boiled down: as §1
Assay [4] addresses GlcNAc(b1-2)Man(a1-3)[GlcNAc(b1-2)Man(a1-6)]Man(b1-4)GlcNAc(b1-4)[Fuc(a1-6)]GlcNAc. The essentials: as §1
Assay [5] addresses GlcNAc(b1-2)Man(a1-3)[GlcNAc(b1-4)][GlcNAc(b1-2)Man(a1-6)]Man(b1-4)GlcNAc(b1-4)GlcNAc. The essentials:
as §1

For assay [6], the target named is GlcNAc(b1-2)Man(a1-3)[GlcNAc(b1-4)][GlcNAc(b1-2)Man(a1-6)]Man(b1-4)GlcNAc(b1-4)[Fuc(a1-6)]GlcNAc. The method, boiled down:
as §1

In assay [7] the target is GlcNAc(b1-2)[GlcNAc(b1-4)]Man(a1-3)[GlcNAc(b1-2)Man(a1-6)]Man(b1-4)GlcNAc(b1-4)GlcNAc. The essentials:
as §1

Assay [8] deals with GlcNAc(b1-2)[GlcNAc(b1-4)]Man(a1-3)[GlcNAc(b1-4)][GlcNAc(b1-2)Man(a1-6)]Man(b1-4)GlcNAc(b1-4)GlcNAc. The essentials: as §1
In assay [9] the target is GlcNAc(b1-2)[GlcNAc(b1-4)]Man(a1-3)[GlcNAc(b1-4)][GlcNAc(b1-2)[GlcNAc(b1-6)]Man(a1-6)]Man(b1-4)GlcNAc(b1-4)GlcNAc. The essentials:
as §1

In assay [10] the target is GlcNAc(b1-2)[GlcNAc(b1-4)]Man(a1-3)[GlcNAc(b1-4)][GlcNAc(b1-2)[GlcNAc(b1-6)]Man(a1-6)]Man(b1-4)GlcNAc(b1-4)[Fuc(a1-6)]GlcNAc. The essentials: as §1
Assay [11] concerns the target GlcNAc(b1-2)[GlcNAc(b1-6)]Man(a1-6)[GlcNAc(b1-2)Man(a1-3)]Man(b1-4)GlcNAc(b1-4)GlcNAc. The essentials:
as §1

Assay [12] has as its target GlcNAc(b1-2)[GlcNAc(b1-6)]Man(a1-6)[GlcNAc(b1-2)Man(a1-3)]Man(b1-4)GlcNAc(b1-4)[Fuc(a1-6)]GlcNAc. The essentials: as §1
The target of assay [13] is GlcNAc(b1-2)[GlcNAc(b1-6)]Man(a1-6)[GlcNAc(b1-4)][GlcNAc(b1-2)Man(a1-3)]Man(b1-4)GlcNAc(b1-4)GlcNAc. The method, boiled down: as §1
For the next assay, the target named is GlcNAc(b1-3)Fuc. The essentials: as §1
For another assay, the target named is GlcNAc(b1-3)Gal. The essentials: as §1
Assay [14] concerns the target GlcNAc(b1-3)Gal(b1-3)GalNAc. The method, boiled down: as §1
For another assay, the target named is GlcNAc(b1-3)Gal(b1-4)Glc. The method, boiled down: as §1
Assay [15] concerns the target GlcNAc(b1-3)Gal(b1-4)GlcNAc. The method, boiled down:
as §1

Assay [16] deals with GlcNAc(b1-3)Gal(b1-4)GlcNAc(b1-2)Man(a1-3)[GlcNAc(b1-3)Gal(b1-4)GlcNAc(b1-2)Man(a1-6)]Man(b1-4)GlcNAc(b1-4)GlcNAc. The essentials:
as §1

In assay [17] the target is GlcNAc(b1-3)Gal(b1-4)GlcNAc(b1-2)Man(a1-3)[GlcNAc(b1-3)Gal(b1-4)GlcNAc(b1-2)Man(a1-6)]Man(b1-4)GlcNAc(b1-4)[Fuc(a1-6)]GlcNAc. The essentials:
as §1

The target of assay [18] is GlcNAc(b1-3)Gal(b1-4)GlcNAc(b1-2)[GlcNAc(b1-3)Gal(b1-4)GlcNAc(b1-6)]Man(a1-6)[GlcNAc(b1-3)Gal(b1-4)GlcNAc(b1-2)Man(a1-3)]Man(b1-4)GlcNAc(b1-4)GlcNAc. The method, boiled down:
as §1

In assay [19] the target is GlcNAc(b1-3)Gal(b1-4)GlcNAc(b1-3)Gal(b1-4)GlcNAc. The essentials: as §1

The other results are listed elsewhere or left out.

B1: Epa1 (Candida glabrata) (protein)
chain: MGSSHHHHHHSSGLVPRGSHMTSSNDISLASKDPTTFPLGCSPDITTPKKGLSMELYSYDFRKKGSYPCWDAAYLDPNYPRTGYKSHRLLAKVDGVTGNINFYYHATKGCTPQLGHLPASYNYPKPLTMTNFTMLLYGYFRPKVTGFHTFTISADDLLFVNFGAGNAFDCCRRDSSADHFGNYQAYAIWGSKTAKDELTVHLDAGVYYPIRLFYNNREYDGALSFTFKTESNENTVSDFSEYFFSLDDTEEGCPGLISYD
In the case of B1, the “glycan array binding signal (z-score)” value is 3.02 in [1]; -0.263 in [2]; -0.308 in [3]; -0.31 in assay [4]; -0.336 in assay [5]; -0.296 in assay [6]. Further, the “glycan array binding signal (z-score)” value is -0.252 in [7]; -0.293 in assay [8]; -0.34 in [9]; -0.278 in [10]; -0.318 in assay [11]; -0.299 in assay [12]. In addition, the “glycan array binding signal (z-score)” value in assay [13] is -0.351; with GlcNAc(b1-3)Fuc, -0.261; in the assay with GlcNAc(b1-3)Gal, -0.321; in assay [14] it was -0.246; in the assay with GlcNAc(b1-3)Gal(b1-4)Glc, -0.303; in assay [15] it was -0.309. In addition, the “glycan array binding signal (z-score)” value in assay [16] is -0.327; in assay [17], -0.256; in assay [18], -0.267; in assay [19], -0.287.
